# Experimental data: paper PMC4336329 (PLoS ONE, 2015)
# Screen size: about 310,000 compounds; about 2,200 (0.71%) showed an effect of 50% or more. The effect is printed as a negative number. The list shows a part of the results.
# Molecular target: human ether-à-go-go-related gene (hERG) potassium channel (human, UniProt Q12809)
# Assay: primary screen, population patch clamp on CHO cells stably expressing hERG
# Chain of human ether-à-go-go-related gene (hERG) potassium channel (Q12809 whole entry, looked up): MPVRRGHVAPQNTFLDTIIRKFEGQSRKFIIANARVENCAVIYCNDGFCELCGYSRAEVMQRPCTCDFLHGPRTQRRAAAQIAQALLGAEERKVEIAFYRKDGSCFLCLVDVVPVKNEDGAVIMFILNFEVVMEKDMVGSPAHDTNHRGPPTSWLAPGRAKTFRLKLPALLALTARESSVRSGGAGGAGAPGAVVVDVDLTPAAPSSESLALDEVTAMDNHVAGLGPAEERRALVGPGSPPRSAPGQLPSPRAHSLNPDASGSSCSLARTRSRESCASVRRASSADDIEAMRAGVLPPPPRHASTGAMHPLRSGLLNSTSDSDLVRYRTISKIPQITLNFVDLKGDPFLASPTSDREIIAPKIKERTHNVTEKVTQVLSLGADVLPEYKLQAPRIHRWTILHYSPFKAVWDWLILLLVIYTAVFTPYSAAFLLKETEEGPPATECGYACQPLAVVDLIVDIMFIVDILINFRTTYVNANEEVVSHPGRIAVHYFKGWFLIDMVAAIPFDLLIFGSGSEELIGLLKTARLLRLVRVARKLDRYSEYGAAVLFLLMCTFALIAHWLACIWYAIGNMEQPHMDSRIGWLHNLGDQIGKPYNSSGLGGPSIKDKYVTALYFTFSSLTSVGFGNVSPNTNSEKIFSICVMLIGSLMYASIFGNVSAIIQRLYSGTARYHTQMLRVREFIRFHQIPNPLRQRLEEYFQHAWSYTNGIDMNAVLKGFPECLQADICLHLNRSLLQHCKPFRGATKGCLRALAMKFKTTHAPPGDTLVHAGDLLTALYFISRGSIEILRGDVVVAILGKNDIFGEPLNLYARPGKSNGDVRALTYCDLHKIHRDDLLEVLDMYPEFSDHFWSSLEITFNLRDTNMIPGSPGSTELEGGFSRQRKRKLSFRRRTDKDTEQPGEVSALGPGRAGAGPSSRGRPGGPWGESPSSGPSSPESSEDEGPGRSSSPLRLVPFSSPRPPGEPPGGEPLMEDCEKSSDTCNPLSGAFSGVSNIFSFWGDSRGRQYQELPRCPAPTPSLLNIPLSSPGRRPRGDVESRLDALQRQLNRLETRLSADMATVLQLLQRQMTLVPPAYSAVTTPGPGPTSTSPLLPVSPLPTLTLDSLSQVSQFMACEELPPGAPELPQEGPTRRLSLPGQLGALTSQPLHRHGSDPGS
row,Compound,"hERG current change (%, negative = inhibition) at 1uM [%]"
1,NS(=O)(=O)c1ccc(NCc2cc(Cl)ccc2OCc2ccccc2F)cc1,-1.22
2,O=C(NCCc1ccccn1)c1ccc(OC2CCN(CCc3ccccc3)CC2)cc1,-4.54
3,OCC1(Cc2cccc(F)c2)CCN(Cc2ccc3cccc(F)c3n2)CC1,-14.2
4,COc1ccc(CN(CC(=O)NCC2CCCO2)C(=O)CNS(=O)(=O)c2ccccc2)cc1 (stereo not shown),13.7
5,O=C(NCC(c1ccco1)N1CCCC1)c1cccc(S(=O)(=O)Nc2ccc(F)cc2)c1 (stereo not shown),-0.605
6,Cc1c(-n2c(SCC(N)=O)nc3ccccc3c2=O)c(=O)n(-c2ccccc2)n1C,8.83
7,COc1ccccc1N1C(=S)NC2CS(=O)(=O)CC21 (stereo not shown),16.7
8,Oc1ccc(CCC2CCCCN2Cc2nc(C3CC3)no2)cc1 (stereo not shown),12.7
9,CCN(CC)S(=O)(=O)c1ccc(C(=O)NCC2(N3CCOCC3)CCCCC2)cc1,-4.49
10,CCn1nc(C(=O)Nc2cccc(S(=O)(=O)N3CCCC3)c2)c2ccccc2c1=O,-1.81
11,Cc1c(C(=O)O)cccc1-c1ccc(/C=N/Nc2ccc(Br)cc2)o1,16.1
12,CCOC(=O)CC1C(=O)NCCN1Cc1cccc(OC)c1 (stereo not shown),15.5
13,O=C(O)c1cccc(S(=O)(=O)N2CCc3ccccc3C2)c1,12.9
14,CC(=O)c1ccc(NC(=S)Nc2ccc3[nH]c(=O)[nH]c3c2)cc1,12.6
15,O=C(NCC(c1cccnc1)N1CCOCC1)C1CCCCC1 (stereo not shown),2.28
16,CS(=O)(=O)N1CCN(C(=O)Cc2ccccc2)CC1,10.3
17,Cc1ccc(-n2c(C)cc(/C=C3/C(=N)N4C(c5ccccc5)=CSC4=NC3=O)c2C)cc1,4.49
18,O=C(COC(=O)c1cc2ccccc2cc1O)NC(=O)NCc1ccco1,14.9
19,CC(C)OC(=O)C1C(=O)CC(C)(O)C(C(=O)OC(C)C)C1c1cccnc1 (stereo not shown),19.9
20,O=[N+]([O-])c1ccc(/C=N/Nc2ncccc2[N+](=O)[O-])s1,10.6
21,COc1ccc(S(=O)(=O)N2CCN(C(=O)Nc3ccccc3OC)CC2)cc1,8.98
22,CCn1ncc(S(=O)(=O)NCc2ccco2)c1C,8.81

row,Compound,"hERG current change (%, negative = inhibition) at 1uM [%]"
1,COc1ccc(-c2ccc(OC)c([C@H]3[C@H]4C=CC[C@@H](C)[C@@H]4C(=O)N3Cc3ccccc3)c2)cc1OC,13
2,CCOc1cc2[nH]c(=S)n(CCC(=O)N3CCc4ccccc4C3)c(=O)c2cc1OCC,-0.166
3,O=C(Cc1coc2ccc3ccccc3c12)N1CCc2ccccc21,7.35
4,CCOC(=O)C1C(c2ccc(OC)cc2)N(C)OC1(O)C(F)(F)F (stereo not shown),15.8
5,Cl.O=C1c2ccccc2-c2cccnc21,15.3
6,CCOc1ccc(OCCC(=O)NNC(=O)c2ccccc2Cl)cc1,5.15
7,Cc1ccccc1OCCN1CCC(Cc2ccccc2)CC1.O=C(O)C(=O)O,-10
8,CCOC(=O)N1CCN(C(=O)c2cc3c(-c4cccc(OC)c4)nn(C)c3s2)CC1,9.68
9,O=C(CN1C(=O)NC2(CCCC2)C1=O)OCCOc1cccc(Cl)c1,8.78
10,O=C(O)C(=O)/C(=C\c1ccsc1)c1ccc2ccccc2n1,13.4
11,CN(C)c1cc(-c2ccccc2)nc(-c2ccccc2)n1,14.1
12,Cn1nc(C(F)(F)F)c(-c2cccc(C(F)(F)F)c2)c1NC(=O)c1nccnc1C(=O)O,12.1
13,CN(C)S(=O)(=O)c1ccc(C(=O)Nc2ccccc2SCCC#N)cc1,0.708
14,O=C(CSc1nc2ccccc2c(=O)n1CC1CCCO1)NCc1ccccc1 (stereo not shown),8.6
15,O=C(O)/C=C/C(=O)OC1CC2CCC1C2 (stereo not shown),9.88
16,COc1ccc(O)c(/C=N\NC(=O)CCn2nnc3ccccc32)c1,3.01
17,CC1CN(C(=O)COC(=O)Cc2c(F)cccc2Cl)CC(C)O1 (stereo not shown),10.1
18,COc1ccc(NC(=O)c2cccc(F)c2)cc1Cl,9.26
19,COc1cc(/C=C2\SC(=Nc3ccccc3)NC2=O)cc(Cl)c1O,16.1
20,COc1ccc(/C(N)=N/OC(=O)CCC2CCCC2)cc1OC,-3.95
21,CC(=O)NCCNC(=O)c1cccc(NS(=O)(=O)c2ccc3c(c2)OCCO3)c1,3.7
